Hit rate of the full screen: of about 310,000 compounds, about 2,200 (0.71%) showed an effect of 50% or more. Effects have a minus sign here. The list shows a part of the results.

This note sets out measurements from article PMC4336329 (PLoS ONE, 2015).

human ether-à-go-go-related gene (hERG) potassium channel, sequence (Q12809 whole entry, looked up): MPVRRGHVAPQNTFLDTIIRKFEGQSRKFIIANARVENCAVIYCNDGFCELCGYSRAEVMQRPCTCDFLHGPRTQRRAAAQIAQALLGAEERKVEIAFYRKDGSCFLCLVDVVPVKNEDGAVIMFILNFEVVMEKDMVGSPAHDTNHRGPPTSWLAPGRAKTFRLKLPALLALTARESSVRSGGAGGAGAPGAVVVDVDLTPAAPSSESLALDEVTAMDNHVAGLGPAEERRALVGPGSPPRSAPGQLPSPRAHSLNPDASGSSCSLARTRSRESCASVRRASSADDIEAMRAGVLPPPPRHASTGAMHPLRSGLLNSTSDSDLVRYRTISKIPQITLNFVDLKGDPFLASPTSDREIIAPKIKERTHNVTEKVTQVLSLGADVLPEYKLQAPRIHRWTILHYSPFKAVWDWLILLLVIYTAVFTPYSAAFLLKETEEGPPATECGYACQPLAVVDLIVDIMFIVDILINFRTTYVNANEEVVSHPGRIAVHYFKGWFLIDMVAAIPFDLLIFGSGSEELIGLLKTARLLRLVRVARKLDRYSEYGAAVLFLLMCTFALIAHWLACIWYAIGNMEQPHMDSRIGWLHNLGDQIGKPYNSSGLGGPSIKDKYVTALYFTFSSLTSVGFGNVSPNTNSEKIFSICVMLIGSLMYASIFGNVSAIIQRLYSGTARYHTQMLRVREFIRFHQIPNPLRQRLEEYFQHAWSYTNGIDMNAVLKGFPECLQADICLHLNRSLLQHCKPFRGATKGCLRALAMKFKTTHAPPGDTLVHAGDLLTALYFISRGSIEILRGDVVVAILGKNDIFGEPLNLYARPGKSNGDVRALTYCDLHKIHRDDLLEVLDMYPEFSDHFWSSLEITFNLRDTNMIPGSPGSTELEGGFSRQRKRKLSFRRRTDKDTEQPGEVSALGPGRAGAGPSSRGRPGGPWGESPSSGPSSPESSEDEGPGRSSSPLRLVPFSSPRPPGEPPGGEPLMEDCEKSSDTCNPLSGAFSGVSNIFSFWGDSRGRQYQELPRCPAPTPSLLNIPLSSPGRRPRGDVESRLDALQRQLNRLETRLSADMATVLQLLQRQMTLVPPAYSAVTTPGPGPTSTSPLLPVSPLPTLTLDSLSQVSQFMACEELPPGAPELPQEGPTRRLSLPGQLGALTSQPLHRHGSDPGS

The assay concerns the target human ether-à-go-go-related gene (hERG) potassium channel (human, UniProt Q12809). Briefly: primary screen, population patch clamp on CHO cells stably expressing hERG.
`COc1ccc(CN2C(=O)NC3(CCCCCC3)C2=O)cc1F`: the “hERG current change (%, negative = inhibition) at 1uM” value came out at 7.71%. Regarding `Cc1ccc(C(=O)OCC(=O)Nc2ccc3c(c2)OCO3)o1`, the “hERG current change (%, negative = inhibition) at 1uM” value came to 15.8%. To `CCN(CC)S(=O)(=O)c1cc(NC(=O)c2cc([N+](=O)[O-])ccc2N2CCOCC2)ccc1C` belongs 10.4%. Next, `O=C(O)CSc1nc2ccccc2c(=O)[nH]1`: 5.95%; `CCC(C)(C)NC(=O)C(c1cccc(OC)c1)N(C(=O)CNC(=O)c1cccs1)c1cccnc1` (stereo not shown): 12.1%; `Cc1ccc(CN2CC(C(=O)O)CC2=O)cc1` (stereo not shown): 0.902%. To `c1ccc(N2CCN(Cc3cn4ccccc4n3)CC2)cc1` belongs 11.8%; to `Cc1ccc(-n2ncc3c(SCC(=O)NNC(=O)C(C)C)ncnc32)cc1`, 24.1%. Take `c1ccc(C2=NCCCN2)cc1`: the “hERG current change (%, negative = inhibition) at 1uM” value was determined as 12.1%. Next, `COc1ccc(CCNC2CC(C)N(C)CC2C)cc1OC.Cl` (stereo not shown): 8.57%; `CCOC(=O)c1sc(C)c2c1NC(C)(c1cccc3ccccc13)NC2=O` (stereo not shown): 12.7%; `CC(C)(C)c1ccc(S(=O)(=O)N2CCCCC2C(=O)NCc2ccccn2)cc1` (stereo not shown): -9.99%. Next, `CCOC(=O)N1CCN(C(=O)c2ccc(CN(c3ccccc3)S(C)(=O)=O)cc2)CC1`: 13.2%. Next, `O=C(C[n+]1ccc(C(=O)N/N=C/c2ccc(Br)cc2)cc1)c1ccccc1.[Br-]`: -32.5%; `CCCCN(C)CCNC(=O)c1cc(-c2cccnc2)nc2ccc(S(=O)(=O)N3CCC(C)CC3)cc12`: 2.78%.

Consider `CN(C)c1ccc(Nc2cc(Cl)ncn2)cc1`, for which the “hERG current change (%, negative = inhibition) at 1uM” value is listed as 7.5%.

Take `O=c1cc(CO)oc(CN2CCN(c3ccccc3F)CC2)c1O`: the “hERG current change (%, negative = inhibition) at 1uM” value is 9.28%. Next, `COC(=O)c1c(NC(=O)CCc2ccc(C)o2)sc(C)c1C`: 10.4%; `O=CN1CCCN(C(=O)CC2C(=O)NCCN2Cc2cccc(Oc3ccccc3)c2)CC1` (stereo not shown): -14.6%; `CCOc1ccc(NC(=O)CN(C)CC(=O)Nc2ccc(Br)cc2F)cc1OCC`: -1.74%. Take `COc1ccc(CC(NC(C)=O)C(=O)N2CCN(C(=O)N(C(C)C)C(C)C)CC2)cc1` (stereo not shown): the “hERG current change (%, negative = inhibition) at 1uM” value was found to be 4.41%.

As for `Cn1c2ccccc2c(=O)c2c(=O)n(Cc3ccco3)c(-c3ccc(F)cc3)nc21`, the “hERG current change (%, negative = inhibition) at 1uM” value is on record as 6.3%. Next, `Oc1ccccc1C1N=C(c2ccccc2)NC(c2ccccc2)=N1`: 10.8%; `O=c1c2ccccc2n(CC(O)CN2CCCCC2)c2ccccc12` (stereo not shown): -4.43%. To `Cn1cc(C(=O)N/N=C/c2ccc3c(c2)OCO3)c2ccccc21` belongs 12.4%; to `C=CCNc1nc(NCCN2CCOCC2)nc(N2CCOCC2)n1`, 18.1%; to `CCOC(=O)c1ccc(N2C(=O)CC(N3CCN(C(=O)c4ccccc4)CC3)C2=O)cc1` (stereo not shown), 1.21%. Next, `O=C(NCC(Cl)c1ccc2ccccc2c1)c1c(F)cccc1F` (stereo not shown): 18.8%.

Turning to `O=C(COC(=O)c1ccc(N2CCCC2=O)cc1)Nc1ccccc1`, the “hERG current change (%, negative = inhibition) at 1uM” value is 17.8%. Consider `CNC(=S)NNC(=O)COc1cccc(C)c1C`, for which the “hERG current change (%, negative = inhibition) at 1uM” value was found to be 16.7%. Next, `COc1ccccc1N(CC(=O)Nc1cccnc1)S(=O)(=O)c1ccccc1`: 1.18%; `O=C(O)CCC(=O)c1c[nH]c2ccccc12`: -9.58%. Next, `C/C(=N\NC(=O)c1ccc(Cl)cc1)c1cccc(NC(=O)C(C)C)c1`: 6.39%; `CCN(CC)CCn1c(OC)cc(=O)[nH]c1=O`: 19.4%; `O=C(NCc1cccc(Cl)c1)c1ccc(S(=O)(=O)Nc2cccc(C(F)(F)F)c2)cc1`: 15.4%. In the case of `Cc1ccn(CCC(=O)Nc2ccc(-c3ccno3)cc2)n1`, the “hERG current change (%, negative = inhibition) at 1uM” value is 5.53%. Next, `COc1ccc([N+](=O)[O-])cc1NC(=S)NC(NC(=O)C(c1ccccc1)c1ccccc1)C(Cl)(Cl)Cl` (stereo not shown): 5.06%; `O=C(NCC1(c2ccccc2)CCCC1)c1ccco1`: 3.89%; `CCOc1ccc(NS(=O)(=O)c2ccc(C(=O)N(C)CC(=O)Nc3ccc(OC)cc3)cc2)cc1`: 4.46%. As to `Cc1c(OC(C(=O)O)c2ccccc2)ccc2c(-c3ccccc3)cc(=O)oc12` (stereo not shown), the “hERG current change (%, negative = inhibition) at 1uM” value is listed as 6.4%.

Turning to `O=C(c1cccs1)N1CCC(c2nc3ccccc3s2)CC1`, the “hERG current change (%, negative = inhibition) at 1uM” value is reported as -9.48%. Take `CC(=O)NC(Cc1c[nH]c2ccccc12)C(=O)O` (stereo not shown): the “hERG current change (%, negative = inhibition) at 1uM” value is on record as 0.653%. Next, `Br.Cc1ccc(Cn2c(=N)n(CC(=O)c3ccccc3)c3ccccc32)cc1`: -16.4%.

In the case of `COc1cc(C(C)=O)ccc1OCC(=O)N1CCc2ccccc2C1`, the “hERG current change (%, negative = inhibition) at 1uM” value came to 9.79%. To `COc1cccc(OC)c1CC1SC(=O)NC1=O` (stereo not shown) belongs 7.86%; to `COc1ccc2c(C)cc(SCC(=O)N3CCOCC3)nc2c1`, -6.4%. Next, `CCN(CC(=O)Nc1cc(Cl)ccc1-n1cncn1)Cc1nc2ccccc2c(=O)[nH]1`: -7.81%. To `COc1ccccc1N(CC(=O)N(c1ccccc1)C(C)C)S(=O)(=O)c1cccs1` belongs 5.66%; to `Cc1ccc(Sc2c(C)nn(C(=O)c3cccc(S(=O)(=O)N4CCOCC4)c3)c2C)cc1`, -2.68%.

In the case of `O=C(COC(=O)c1ccccc1SCC(=O)N1CCCC1)Nc1ccccc1OC(F)F`, the “hERG current change (%, negative = inhibition) at 1uM” value came to 10.7%.

As for `Br.Brc1ccc(-c2csc(NNC3=NCCCCC3)n2)cc1`, the “hERG current change (%, negative = inhibition) at 1uM” value came to 9.68%. Next, `CC(CCc1ccccc1)NC(=O)CNC(=O)COc1ccccc1` (stereo not shown): 8.29%. Next, `O=C(Nc1c(F)cc(F)cc1Br)c1cc2nc(C(F)F)cc(C(F)F)n2n1`: 6.33%; `O=C(NCCc1ccc(O)cc1)c1ccc(Cl)cc1`: 4.07%.

Consider `Cc1nn(-c2ccccc2)c2[nH]c(=O)c(CNCC3CCCO3)cc12` (stereo not shown), for which the “hERG current change (%, negative = inhibition) at 1uM” value amounted to 12.1%. To `Clc1ccc(N2CCN(Cc3ccco3)CC2)cc1` belongs 4.97%. To `CCn1ccnc1C(O)(c1ccccc1)c1ccccc1` belongs 6.77%; to `CCN1CCN(C(=O)COc2ccc(S(=O)(=O)N3CCOCC3)cc2Cl)CC1`, 11.6%.

Take `C/C(=N\OCC(=O)OCC(=O)NC(=O)c1ccc(OC(F)F)cc1)c1ccc2c(c1)OCO2`: the “hERG current change (%, negative = inhibition) at 1uM” value is -12.5%. Next, `CC(C(=O)N1CCOCC1)N1C(=O)C2C3CC(C(Br)C3Br)C2C1=O` (stereo not shown): 6.77%; `Cc1[nH]c2ccccc2c1C(c1ccccn1)N1CCC(C(N)=O)CC1` (stereo not shown): 2.5%.

Take `CCc1ccc(OCCCC(=O)Nc2ccc(N3CCOCC3)cc2)cc1`: the “hERG current change (%, negative = inhibition) at 1uM” value came out at 15.3%. In the case of `Cn1nc([N+](=O)[O-])nc1Sc1nnnn1-c1cccc(C(=O)O)c1`, the “hERG current change (%, negative = inhibition) at 1uM” value worked out at 15.1%.

Take `O=C(Nc1ccc(F)cc1)N(Cc1ccco1)Cc1cc2cc3c(cc2[nH]c1=O)OCO3`: the “hERG current change (%, negative = inhibition) at 1uM” value is reported as 13.8%. Next, `CCCn1c(N)c(Sc2ccccc2[N+](=O)[O-])c(=O)n(CCC)c1=O`: 4.27%; `Cn1c(C(=O)N2CCCC(C(=O)NCCCc3ccccc3)C2)cc2sccc21` (stereo not shown): -23.5%; `CCOc1cc(S(=O)(=O)NCCc2cccc(C)c2)c(OCC)cc1-n1cnnn1`: 4.82%. Next, `O=C(CCC1CCCCC1=O)c1ccccc1` (stereo not shown): 10.8%.

In the case of `Clc1ccc(CNc2ccccn2)cc1`, the “hERG current change (%, negative = inhibition) at 1uM” value worked out at 3.11%. Consider `Cc1cc(/C=N/n2cnnc2)c(C)n1-c1cc(Cl)ccc1Cl`, for which the “hERG current change (%, negative = inhibition) at 1uM” value is recorded as -1.87%. To `COc1ccccc1CNC(=O)COc1ccc([N+](=O)[O-])cc1` belongs 5.93%. Next, `CCCCC#Cc1cncc(C(=O)N/N=C/c2ccccc2)c1`: 12.6%; `O=C(NCCCN1CCOCC1)C1Nc2ccc(OC(F)(F)F)cc2C2C=CCC12` (stereo not shown): -0.058%. Regarding `CCCn1c(CC)nc([N+](=O)[O-])c1S(=O)(=O)c1ccccc1`, the “hERG current change (%, negative = inhibition) at 1uM” value is listed as -1.6%. To `CC1=C(NCCc2ccccc2)CCC1=O` belongs 8.22%; to `O=C(NCc1cccnc1)Nc1cccc(Cl)c1Cl`, 10.7%.

Turning to `O=S(=O)(NNc1nccc(C(F)(F)F)n1)c1cccc(Cl)c1Cl`, the “hERG current change (%, negative = inhibition) at 1uM” value amounted to 15.8%. To `Cc1cccc(OCc2nnc(SCC(=O)OC3CCCCC3)o2)c1` belongs 16.5%; to `O=C1CC(=C(c2ccccc2)c2ccccc2)C(=O)N1CCCCN1CCN(c2ccccc2)CC1`, 4.62%; to `CC12CCC(C(=O)Nc3cccc4ccccc34)(C1Br)C2(C)C` (stereo not shown), 20.6%.

Regarding `Nn1c(SCC(=O)Nc2ccc(F)c(F)c2)nnc1C1CCCCC1`, the “hERG current change (%, negative = inhibition) at 1uM” value is listed as 11.4%. For the compound `CCN(CC)CC.COc1ccc(OC)c(-n2c(=S)[nH]c3c(sc(=S)n3-c3ccccc3)c2=O)c1`, the “hERG current change (%, negative = inhibition) at 1uM” value was 13.8%. For the compound `CN(CC(=O)N1CCN(c2ccccn2)CC1)S(=O)(=O)c1ccc2ccccc2c1`, the “hERG current change (%, negative = inhibition) at 1uM” value is 4.44%. To `Cc1[nH]n2c(=O)c3c(nc2c1-c1cccc2ccccc12)CCC3` belongs 16.5%. To `CC1CCCCN1C(=O)c1cc(Cl)ccc1[N+](=O)[O-]` (stereo not shown) belongs 3.75%; to `CC(=O)c1c(C)[nH]c(C(=O)OCC(=O)N2CCN(S(=O)(=O)c3ccc(C)cc3)CC2)c1C`, 16%.

For the compound `C=CCn1c(SCC(=O)O)nnc1-c1ccc(C(C)(C)C)cc1`, the “hERG current change (%, negative = inhibition) at 1uM” value is 3.34%. To `CCN1CCCC1CNC(=O)Cn1cnc2sc(C)c(S(=O)(=O)N3CCC(C)CC3)c2c1=O` (stereo not shown) belongs 4.33%.
